Assay results: article PMC4336329 (PLoS ONE, 2015)
Screen size: about 310,000 compounds; about 2,200 (0.71%) showed an effect of 50% or more. Effects have a minus sign here. The list shows a part of the results.

The compounds below were run against human ether-à-go-go-related gene (hERG) potassium channel (human, UniProt Q12809) (assay: primary screen, population patch clamp on CHO cells stably expressing hERG).
human ether-à-go-go-related gene (hERG) potassium channel, sequence (Q12809 whole entry, looked up): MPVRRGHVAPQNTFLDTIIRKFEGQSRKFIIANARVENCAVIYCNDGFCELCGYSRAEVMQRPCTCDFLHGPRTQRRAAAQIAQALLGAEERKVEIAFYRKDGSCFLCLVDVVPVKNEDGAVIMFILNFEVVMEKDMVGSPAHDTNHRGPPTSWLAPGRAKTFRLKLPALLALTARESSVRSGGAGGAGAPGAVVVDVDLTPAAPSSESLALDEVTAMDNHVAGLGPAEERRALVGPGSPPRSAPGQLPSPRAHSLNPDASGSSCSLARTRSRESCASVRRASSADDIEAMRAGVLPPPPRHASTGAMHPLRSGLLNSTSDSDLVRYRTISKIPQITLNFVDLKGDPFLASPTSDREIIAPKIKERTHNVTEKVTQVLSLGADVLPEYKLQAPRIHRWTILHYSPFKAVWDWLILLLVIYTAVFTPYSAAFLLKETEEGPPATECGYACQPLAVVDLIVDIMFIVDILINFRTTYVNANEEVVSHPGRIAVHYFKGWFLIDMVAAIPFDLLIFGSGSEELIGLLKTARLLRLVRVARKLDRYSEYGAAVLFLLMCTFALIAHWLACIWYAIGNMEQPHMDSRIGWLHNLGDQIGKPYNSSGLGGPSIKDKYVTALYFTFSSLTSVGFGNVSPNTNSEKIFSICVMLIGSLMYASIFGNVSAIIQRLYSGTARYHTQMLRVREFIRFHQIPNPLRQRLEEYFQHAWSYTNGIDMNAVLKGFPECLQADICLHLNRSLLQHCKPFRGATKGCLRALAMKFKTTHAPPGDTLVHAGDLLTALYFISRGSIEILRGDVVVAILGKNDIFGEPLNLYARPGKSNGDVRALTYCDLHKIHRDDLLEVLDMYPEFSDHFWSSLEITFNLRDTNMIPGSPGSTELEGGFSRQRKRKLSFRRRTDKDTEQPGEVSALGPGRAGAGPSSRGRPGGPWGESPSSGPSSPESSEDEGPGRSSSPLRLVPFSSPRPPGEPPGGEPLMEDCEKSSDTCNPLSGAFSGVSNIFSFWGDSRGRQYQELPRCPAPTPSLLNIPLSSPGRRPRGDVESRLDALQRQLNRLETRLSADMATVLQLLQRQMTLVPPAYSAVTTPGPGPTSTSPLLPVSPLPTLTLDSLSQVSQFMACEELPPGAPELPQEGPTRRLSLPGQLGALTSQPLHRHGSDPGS

SMILES	hERG current change (%, negative = inhibition) at 1uM [%]
COc1cccc(CN(C)CC2CCCN(CCc3ccc(Cl)cc3)C2)c1OC (centres unmarked)	-3.32
CC1CC(C)CN(C(=O)c2ccc(Br)c(S(=O)(=O)N3CCOCC3)c2)C1 (centres unmarked)	6.63
Cc1ccc(CS(=O)(=O)c2ccc(C(=O)N3CCN(c4ccccn4)CC3)cc2[N+](=O)[O-])cc1	1.35
Nc1nc(N2CCOCC2)nc(N(c2ccccc2)c2ccccc2)n1	4.13
COc1ccc2[nH]c3c(=S)nc[nH]c3c2c1	12.7
O=C(O)C1CCCCC1C(=O)Nc1ccccn1 (centres unmarked)	14.9
COc1ccccc1NC(=O)C(C)OC(=O)C1CCC(C(C)(C)C)CC1 (centres unmarked)	9.4
COc1ccc(OCC(=O)NNC(=O)C(=O)Nc2ccc(C)cc2)cc1	11.1
CC(C)c1ccc(NS(=O)(=O)c2ccc(Cl)nc2)cc1	15.6
Cc1cccc(CCNC(=O)CCc2c(C)nc3ncnn3c2C)c1	4.74
CCOC(=O)CN1C(=O)C(=O)N(Cc2c(Cl)cccc2Cl)C1=O	13.8
COC(=O)c1cc(COc2ccc3c4c(c(=O)oc3c2)CCCC4)c(C)o1	-0.702
CCC(Sc1nnc2c3ccccc3n(CC)c2n1)C(=O)Nc1sc2c(c1C#N)CCCC2 (centres unmarked)	-4.27
COc1ccc2cc(C)c3nnc(SCC(=O)Nc4nc(-c5ccc(F)cc5)cs4)n3c2c1	6.19
CCCSc1ccc2nc(NC(=O)OC)[nH]c2c1	11.2
COc1ccc(CN2CCN(c3ncccn3)CC2)c(C)c1C	-3.18
CC(=O)NC(Cc1ccccc1)C(C)=O (centres unmarked)	-3.72
COCCCNC(=O)/C=C/c1ccc(Cl)cc1Cl	3.21
Cc1ccc(-c2nc3ncccc3o2)cc1NC(=O)C(C)C	13.5
CCOc1ccc(OCC)c(S(=O)(=O)n2cc(C)nc2CC)c1	26.7
O=C(CN1CCN(C(=O)CNC(=O)c2ccc3c(c2)OCO3)CC1)Nc1cccc(F)c1	10.4
CCN1/C(=c2/s/c(=C3/C(=O)N(c4ccccc4)N=C3C)n(CC)c2=O)C=Cc2ccccc21	-5.43

SMILES	hERG current change (%, negative = inhibition) at 1uM [%]
CCCc1nn(C)c2c1C(c1cccnc1)C(C#N)=C(N)O2 (centres unmarked)	13.8
COc1ccc(OC)c(NC(=O)c2ccc3c(c2)CCN3S(C)(=O)=O)c1	12.7
COc1ccccc1NS(=O)(=O)c1cccc(C(=O)N/N=C(\C)c2ccc3c(c2)OCCO3)c1	6.92
O=C(Nc1cccc(S(=O)(=O)Nc2ccccc2F)c1)c1ccc2ccccc2n1	10.5
COc1ccc(/C=N/NC(=O)c2ccc(CN3C(=O)c4cccc5cccc3c45)cc2)cc1O	4.23
Cc1ccn(C(=O)c2cc3c(C)nn(-c4ccccc4)c3s2)n1	9.37
S=c1nccc(-c2cc(Cl)sc2Cl)[nH]1	-1.94
CCCC(=O)Nc1nc(C)c(C(C)=O)s1	7.11
O=C(COC(=O)CCC(=O)c1ccccc1)NNC(=O)c1ccc(Cl)cc1	11.1
CC(C)c1ccc(-c2nc(N3CCCCC3)[nH]c(=O)c2C#N)cc1	12.6
O=C(COc1ccc(Br)cc1Cl)NC(=S)Nc1ccccn1	20.8
COc1ccc(-c2nnc(SCC(=O)Nc3ccc4c(c3)OCCO4)n2N)cc1OC	13.2
O=C(O)C1CC(c2ccccc2)=Nc2ccccc2S1 (centres unmarked)	5.39
CCOC(=O)c1cc2c(=O)[nH]c(C(Cl)(Cl)Cl)nc2o1	-0.458
COc1ccc(NC(=O)CCSc2nc(C)cs2)cc1	13.3
Cc1ccc(NC(=O)CSCC(=O)N(C)CC(=O)Nc2cccc(F)c2)cc1	-7.8
O=C(CCl)N1N=C(c2cccs2)CC1c1ccco1 (centres unmarked)	12.6
CCC(=O)Nc1c(-c2ccc(C)cc2)c(=O)c2ccccc2n1C	5.39
O=C1CCC(C(=O)N2CCc3ccccc3C2)CN1CCCN1CCOCC1 (centres unmarked)	16.3
COc1cccc(/C=N/n2c(-c3cccs3)n[nH]c2=S)c1	19.4
CC(NC(=O)CCNC(=O)c1ccco1)c1ccc(F)cc1 (centres unmarked)	11.3
CCOc1ccc(-c2[nH]ncc2-c2ccc(OC)c(OC)c2)c(O)c1	10.3
